From the supplement of paper PMC9151546
Repeats are few or missing, and single values can be far off.

How the values were obtained:
[1] = system: CHO-K1; experiment: relative survival (nuclei to bead ratio vs DMSO control) (% of vehicle control); higher = more surviving cells
Description: (§1)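 Flow-cytometric in vitro micronucleus assay (Litron MicroFlow) in CHO-K1 cells in 96-well plates, 19 concentrations (4.5-200 µM, n=1 per concentration). Without S9, cells were exposed for 24 h and sampled at 48 h. With Aroclor 1254-induced rat liver S9, cells were exposed for 3-4 h and sampled at 27-28 h. Read-outs are %MN and %hypodiploid nuclei relative to nucleated events, and relative survival as the nuclei-to-bead ratio versus the 1% DMSO vehicle control (x100).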

[2] = system: CHO-K1; experiment: micronucleus frequency (% of nucleated events); higher = more micronuclei (genotoxic)
[3] = system: CHO-K1; experiment: hypodiploid nuclei frequency (% of nucleated events); higher = more hypodiploid events (aneugenic)
Description: as §1
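Wherever hypodiploid nuclei frequency (% of nucleated events) is given: hypodiploid nuclei gated on a flow cytometer with 488 nm excitation after SYTOX Green staining, cultures at 37 °C, positive controls vinblastine without S9 and cyclophosphamide with S9.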
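Wherever micronucleus frequency (% of nucleated events) is given: cells lysed with nuclei stained by SYTOX Green, then micronucleus-gated events counted against nucleated events by flow cytometry with 488 nm excitation.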
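Wherever relative survival (nuclei to bead ratio vs DMSO control) is given: Lysed-cell nuclei stained with SYTOX Green and counted against counting beads by flow cytometry at 488 nm excitation, with vinblastine (no S9) and cyclophosphamide (plus S9) as positive controls.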

CC(=O)OC1CC(C)OC(C)O1 (stereo unspecified) [Dimethoxane]
Conditions | hypodiploid nuclei frequency, [3] [%] | micronucleus frequency, [2] [%] | relative survival, [1]
concentration: 4.5 (µM), S9 metabolic activation: with S9, exposure time: 3-4 hours | 0.3 | 1.76 | 85.9
concentration: 4.5 (µM), S9 metabolic activation: without S9, exposure time: 24 hours | 1.6 | 1.36 | 111
concentration: 5.63 (µM), S9 metabolic activation: with S9, exposure time: 3-4 hours | 0.26 | 1.92 | 76.5
concentration: 5.63 (µM), S9 metabolic activation: without S9, exposure time: 24 hours | 1.3 | 1.56 | 105
concentration: 7.04 (µM), S9 metabolic activation: with S9, exposure time: 3-4 hours | 0.34 | 2.1 | 96.7
concentration: 7.04 (µM), S9 metabolic activation: without S9, exposure time: 24 hours | 1.1 | 1.64 | 151
concentration: 8.8 (µM), S9 metabolic activation: with S9, exposure time: 3-4 hours | 0.4 | 1.82 | 93.7
concentration: 8.8 (µM), S9 metabolic activation: without S9, exposure time: 24 hours | 0.96 | 1.28 | 145
concentration: 11 (µM), S9 metabolic activation: with S9, exposure time: 3-4 hours | 0.36 | 1.9 | 103
concentration: 11 (µM), S9 metabolic activation: without S9, exposure time: 24 hours | 1.22 | 1.72 | 117
concentration: 13.7 (µM), S9 metabolic activation: with S9, exposure time: 3-4 hours | 0.38 | 2.18 | 82.2
concentration: 13.7 (µM), S9 metabolic activation: without S9, exposure time: 24 hours | 1.08 | 1.6 | 156
concentration: 17.2 (µM), S9 metabolic activation: with S9, exposure time: 3-4 hours | 0.32 | 2.08 | 91.8
concentration: 17.2 (µM), S9 metabolic activation: without S9, exposure time: 24 hours | 1.2 | 1.6 | 112
concentration: 21.5 (µM), S9 metabolic activation: with S9, exposure time: 3-4 hours | 0.2 | 1.72 | 69.4
concentration: 21.5 (µM), S9 metabolic activation: without S9, exposure time: 24 hours | 1.12 | 1.8 | 112
concentration: 26.8 (µM), S9 metabolic activation: with S9, exposure time: 3-4 hours | 0.34 | 1.82 | 75.8
concentration: 26.8 (µM), S9 metabolic activation: without S9, exposure time: 24 hours | 1.52 | 2.52 | 96.8
concentration: 33.6 (µM), S9 metabolic activation: with S9, exposure time: 3-4 hours | 0.34 | 1.76 | 70
concentration: 33.6 (µM), S9 metabolic activation: without S9, exposure time: 24 hours | 1.74 | 2.02 | 80.6
concentration: 41.9 (µM), S9 metabolic activation: with S9, exposure time: 3-4 hours | 0.46 | 2.12 | 70.2
concentration: 41.9 (µM), S9 metabolic activation: without S9, exposure time: 24 hours | 1.4 | 2.3 | 87.1
concentration: 52.4 (µM), S9 metabolic activation: with S9, exposure time: 3-4 hours | 0.88 | 2.21 | 43.1
concentration: 52.4 (µM), S9 metabolic activation: without S9, exposure time: 24 hours | 1.84 | 2.42 | 83.1
concentration: 65.5 (µM), S9 metabolic activation: with S9, exposure time: 3-4 hours | 0.38 | 2.08 | 73.7
concentration: 65.5 (µM), S9 metabolic activation: without S9, exposure time: 24 hours | 1.88 | 2.24 | 98.2
concentration: 81.9 (µM), S9 metabolic activation: with S9, exposure time: 3-4 hours | 0.5 | 2.62 | 55.5
concentration: 81.9 (µM), S9 metabolic activation: without S9, exposure time: 24 hours | 1.68 | 1.84 | 83.6
concentration: 102 (µM), S9 metabolic activation: with S9, exposure time: 3-4 hours | 0.62 | 2.44 | 58.8
concentration: 102 (µM), S9 metabolic activation: without S9, exposure time: 24 hours | 2 | 2.68 | 64.4
concentration: 128 (µM), S9 metabolic activation: with S9, exposure time: 3-4 hours | 0.37 | 3.31 | 49.8
concentration: 128 (µM), S9 metabolic activation: without S9, exposure time: 24 hours | 1.88 | 3.24 | 61.6
concentration: 160 (µM), S9 metabolic activation: with S9, exposure time: 3-4 hours | 0.62 | 4.39 | 43.8
concentration: 160 (µM), S9 metabolic activation: without S9, exposure time: 24 hours | 1.04 | 3.96 | 46.5
concentration: 200 (µM), S9 metabolic activation: with S9, exposure time: 3-4 hours | – | – | 28.3
concentration: 200 (µM), S9 metabolic activation: without S9, exposure time: 24 hours | 0.88 | 3.86 | 43.6
